Assay results reported in publication PMC4964934.
No constants are given. Whether binding was seen depends on the method and setting. In cells and extracts the contact can be indirect. Some binding calls cover weakened binding; strength is not graded here. For some of these results: Tags and fused reporters may be left off the sequences shown.

Protein sequences, listed by entry. Tags and fused reporters are not part of them. Lines headed by an entry give the natural chain unless they say otherwise; changes in a name come on top. Residues count along the entry.
UniProt O95243: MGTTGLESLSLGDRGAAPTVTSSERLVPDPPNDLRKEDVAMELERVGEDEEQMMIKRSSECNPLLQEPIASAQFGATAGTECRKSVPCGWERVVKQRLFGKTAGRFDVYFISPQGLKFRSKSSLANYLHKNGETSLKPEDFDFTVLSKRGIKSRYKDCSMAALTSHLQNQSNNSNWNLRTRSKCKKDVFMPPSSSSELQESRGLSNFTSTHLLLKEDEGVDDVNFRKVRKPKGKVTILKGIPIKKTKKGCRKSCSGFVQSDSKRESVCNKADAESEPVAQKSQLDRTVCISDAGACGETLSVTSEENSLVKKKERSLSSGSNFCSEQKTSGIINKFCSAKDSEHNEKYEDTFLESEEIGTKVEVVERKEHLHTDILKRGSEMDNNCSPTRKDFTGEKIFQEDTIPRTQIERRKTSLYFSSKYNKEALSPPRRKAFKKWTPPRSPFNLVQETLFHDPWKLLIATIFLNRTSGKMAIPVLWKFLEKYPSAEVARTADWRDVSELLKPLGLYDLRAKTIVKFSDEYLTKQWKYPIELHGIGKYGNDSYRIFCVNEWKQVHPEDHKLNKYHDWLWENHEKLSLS
6HIS-TF-UB-hMBD4 mutant 2 (MBD and intervening region, amino acid 1-408): residues 1-408 of O95243
6HIS-TF-UB-hMBD4 mutant 4 (intervening region and the downstream interaction region, 156-455): residues 156-455 of O95243
UniProt Q9Z2D7: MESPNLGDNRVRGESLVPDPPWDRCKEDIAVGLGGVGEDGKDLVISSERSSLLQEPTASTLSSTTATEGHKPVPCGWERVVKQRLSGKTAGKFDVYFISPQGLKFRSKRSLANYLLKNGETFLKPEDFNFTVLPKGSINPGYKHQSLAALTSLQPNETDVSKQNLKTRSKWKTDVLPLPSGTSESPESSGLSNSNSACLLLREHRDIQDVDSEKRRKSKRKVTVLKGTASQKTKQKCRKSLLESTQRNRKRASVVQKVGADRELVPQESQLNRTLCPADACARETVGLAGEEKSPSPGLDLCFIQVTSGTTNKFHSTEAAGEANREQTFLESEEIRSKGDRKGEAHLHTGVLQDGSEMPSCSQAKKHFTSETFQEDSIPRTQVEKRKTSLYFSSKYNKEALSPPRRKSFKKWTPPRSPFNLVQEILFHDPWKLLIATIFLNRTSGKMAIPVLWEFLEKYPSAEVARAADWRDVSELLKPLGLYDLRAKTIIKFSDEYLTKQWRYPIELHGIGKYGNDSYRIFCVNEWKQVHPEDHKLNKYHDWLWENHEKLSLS

B1: FLAG-UHRF1, FLAG epitope-tagged human UHRF1 (protein, UniProt Q96T88 1-793)
chain: MWIQVRTMDGRQTHTVDSLSRLTKVEELRRKIQELFHVEPGLQRLFYRGKQMEDGHTLFDYEVRLNDTIQLLVRQSLVLPHSTKERDSELSDTDSGCCLGQSESDKSSTHGEAAAETDSRPADEDMWDETELGLYKVNEYVDARDTNMGAWFEAQVVRVTRKAPSRDEPCSSTSRPALEEDVIYHVKYDDYPENGVVQMNSRDVRARARTIIKWQDLEVGQVVMLNYNPDNPKERGFWYDAEISRKRETRTARELYANVVLGDDSLNDCRIIFVDEVFKIERPGEGSPMVDNPMRRKSGPSCKHCKDDVNRLCRVCACHLCGGRQDPDKQLMCDECDMAFHIYCLDPPLSSVPSEDEWYCPECRNDASEVVLAGERLRESKKKAKMASATSSSQRDWGKGMACVGRTKECTIVPSNHYGPIPGIPVGTMWRFRVQVSESGVHRPHVAGIHGRSNDGAYSLVLAGGYEDDVDHGNFFTYTGSGGRDLSGNKRTAEQSCDQKLTNTNRALALNCFAPINDQEGAEAKDWRSGKPVRVVRNVKGGKNSKYAPAEGNRYDGIYKVVKYWPEKGKSGFLVWRYLLRRDDDEPGPWTKEGKDRIKKLGLTMQYPEGYLEALANREREKENSKREEEEQQEGGFASPRTGKGKWKRKSAGGGPSRAGSPRRTSKKTKVEPYSLTAQQSSLIREDKSNAKLWNEVLASLKDRPASGSPFQLFLSKVEETFQCICCQELVFRPITTVCQHNVCKDCLDRSFRAQVFSCPACRYDLGRSYAMQVNQPLQTVLNQLFPGYGNGR
B2: mouse version of UHRF1 (ectopic) (protein, UniProt Q8VDF2 1-782)
chain: MWIQVRTMDGKETHTVNSLSRLTKVQELRKKIEEVFHVEPQLQRLFYRGKQMEDGHTLFDYDVRLNDTIQLLVRQSLALPLSTKERDSELSDSDSGYGVGHSESDKSSTHGEGAAEADDKTVWEDTDLGLYKVNEYVDVRDNIFGAWFEAQVVQVQKRALSEDEPCSSSAVKTSEDDIMYHVKYDDYPEHGVDIVKAKNVRARARTVIPWENLEVGQVVMANYNVDYPRKRGFWYDVEICRKRQTRTARELYGNIRLLNDSQLNNCRIMFVDEVLMIELPKERRPLIASPSQPPPALRNTGKSGPSCRFCKDDENKPCRKCACHVCGGREAPEKQLLCDECDMAFHLYCLKPPLTSVPPEPEWYCPSCRTDSSEVVQAGEKLKESKKKAKMASATSSSRRDWGKGMACVGRTTECTIVPANHFGPIPGVPVGTMWRFRVQVSESGVHRPHVAGIHGRSNDGAYSLVLAGGYEDDVDNGNYFTYTGSGGRDLSGNKRTAGQSSDQKLTNNNRALALNCHSPINEKGAEAEDWRQGKPVRVVRNMKGGKHSKYAPAEGNRYDGIYKVVKYWPERGKSGFLVWRYLLRRDDTEPEPWTREGKDRTRQLGLTMQYPEGYLEALANKEKSRKRPAKALEQGPSSSKTGKSKQKSTGPTLSSPRASKKSKLEPYTLSEQQANLIKEDKGNAKLWDDVLTSLQDGPYQIFLSKVKEAFQCICCQELVFRPVTTVCQHNVCKDCLDRSFRAQVFSCPACRFELDHSSPTRVNQPLQTILNQLFPGYGSGR

Columns and labels:
[1] = biological target: 6HIS-TF-UB-hMBD4 mutant 4 (intervening region and the downstream interaction region, 156-455) (human) (UniProt O95243); experiment: pull-down; purified 6HIS-TF-UB hMBD4 mutants pre-incubated with Ni-NTA agarose; mixed 1 h at 4°C with nuclear lysate (without chromatin digestion) of 293T cells transfected with FLAG-UHRF1 or GFP-Mlh1; RIPA washes; Western blot (6HIS IP); only the target purified
[2] = biological target: 6HIS-TF-UB-hMBD4 mutant 2 (MBD and intervening region, amino acid 1-408) (human) (UniProt O95243); experiment: as above
[3] = biological target: GFP-mMBD4, GFP epitope-tagged mouse MBD4 (mouse) (UniProt Q9Z2D7); experiment: co-IP; ectopic proteins in HEK293T; nuclear extract without MNase (no chromatin digestion); GFP beads (ChromoTek), 2 h at 4°C; Western blot
[4] = biological target: FLAG-hMBD4 (SF-TAP-hMBD4), human full-length MBD4 (human) (UniProt O95243); experiment: co-IP; ectopic proteins in HEK293T; MNase-treated nuclear extract (300 mM NaCl); anti-FLAG sepharose beads, 2 h at 4°C; Western blot

binding [1]	binding [2]	binding [3]	binding [4]	Binder
binds	binds	binds		B1
			binds	B2
